# Experimental data as given in the supplement of paper PMC11417369.
# This is one part of the list.
# System: PF3D7_0420300 AP2 domain 1 (GST-tagged)
# Experiment: gcPBM binding intensity (ln(normalized median fluorescence intensity)); higher = stronger DNA binding
# Procedure, shortened: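 Probes on an Agilent 4 × 180k array were primer-extended, double-stranded and 36 bp long, taken from intergenic genomic regions, with negative controls added. GST-tagged P. falciparum DNA-binding domains from E. coli, about 25 μg on average, were applied to the array for 1 h in 1× PBS containing 1% milk, 0.2 mg/ml BSA, 0.5% salmon testes DNA and 0.03% Triton X-100. Binding intensity, obtained after Alexa488 anti-GST antibody detection and a 488 nm scan, is the highest Masliner-normalised natural-log median intensity across replicate spots of either probe orientation.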
row,Sequence,gcPBM binding intensity (ln)
1,ATTTCTCTATCGTAATGTACATAAAAAAGAAAAACA [XGTACX_site6374],9
2,TTATTAAATTCATAAGTGCATTTATGATTAATTTTT [GTGCAC_site9749],9.01
3,TTACATGTAAAAGGTACACACATTATGTATACAAAT [CACACA_site1117],9.59
4,TTTTTTTTTTTTTTTTGTCCGTACTGCTTTGTGTTT [XGTACX_site3687],8.93
5,TTACCCATTCCCTTTACATGCAATTTGTATTAATAA [TGCATGCA_site412],9.51
6,GTACGTTAGATATATACACACATACATAATAAAGAA [CACACA_site7327],9.67
7,TTAATTCTACTTATTACACACATATTAAGCAAAAAT [CACACA_site4921],9.35
8,ATATGTTCCGAAGGTTGTACACACATAGAAATATAC [XGTACX_site8227],9.71
9,AAAATATATACAATATGTACATATATATATATATAT [XGTACX_site1898],9.2
10,AAAAGGAAAAATATCACACATATATATATATATATA [CACACA_site5586],9.23
11,ATTATTATACACAAATGTACATGTGAATTTTTTTTC [XGTACX_site6982],9.28
12,AATAAGTAACAAAATACACACATATAGGTAATTATA [CACACA_site6949],9.85
13,ATATATATTTATAGGTGTACAAAATACTATTTTAGG [XGTACX_site8499],9.04
14,TACCAAATTTATTCTTGTACATATATATATATATAT [XGTACX_site4832],9.28
15,AATATAGAAATAAATATATCACATTTGTGTTTAAAC [XGTACX_negctrl_site68],9.28
16,TTTATGACTTGAAAAAGTACACATATATTTATGCAA [XGTACX_site5451],8.89
17,TATTTATATTTATACACACACACAAAAAAAAAAAAA [CACACA_site6817],9.94
18,TTGTTTTCTTTTTCTTTTCTTTTTCTTTTTTCTTTT [GTGCAC_negctrl_site629],9.45
19,TATATATATATAAAGACACACATCTATAGAATGTTA [CACACA_site2557],9.31
20,AAAAAAAAAAAAAAAGCACACACACCGATGTGTATA [CACACA_site8224],9.99
21,TATATATATATACCTTGTACTTACATTCGCATATAA [XGTACX_site2466],9.32
22,ACATAAATATATGACACACACACATATTATATATAT [CACACA_site3065],10

row,Sequence,gcPBM binding intensity (ln)
1,GTATAATTATGTGCACGTACATATTTTATTATATAT [XGTACX_site8586],9.56
2,CCATTACCATATAAAACACACAAACATACATACATA [CACACA_site5952],9.82
3,TAATATATATAACAAGTGCAAAAAAATATAGATATT [GTGCAC_site9625],9.57
4,GAGAACATTGATACACGTACATAAGTTATAAGTATT [XGTACX_site7665],9.39
5,AAGCATCCTACTGATTGTACATATATATATATATAT [XGTACX_site2150],9.39
6,AATAAACAAATAAATAAATAAACAGATAAATAAATC [CACACA_negctrl_site920],9.8
7,TTAGGTTATAAATACACACACAAAAGAAAAAAAAAA [CACACA_site5625],9.88
8,TTTATTTATATAATTACACACATATATACACAAATG [CACACA_site8903],9.53
9,TATTTAAATTAATATTGTACATATATTTATAATATA [XGTACX_site6109],9
10,AAATATATTATATATGCATGCGCCAAGATTTATATA [TGCATGCA_site770],9.11
11,TTGCATCTATTTTTGAGTACACAATGAGAATAATTA [XGTACX_site7171],9.01
12,AAAAATAAATATACATGTACATAATAATAATATATA [XGTACX_site8359],9.43
13,TTTGAAAAAAAATATTGTACACGTGAATAAAGTATT [XGTACX_site644],9.3
14,TATATATATATATATATATATATATATATAATTTGA [XGTACX_negctrl_site3],8.83
15,AAAAAAAAAAGACACACACACACATACACATACATA [CACACA_site7362],10.2
16,TTAAAAAAGTAATTAACACACAATAATGTAATGCAT [CACACA_site4176],9.48
17,TTATTATATATGTTCACATAAATACATAAATATATA [GTGCAC_negctrl_site529],9.02
18,ACCCAAAATATATTCACACAAAAAATATTAAAAATA [CACACA_site5433],9.27
19,AACTGATATTAATTCTGTACCTATACGTTATATGTT [XGTACX_site1003],9.49
20,AAGCGAATCTATATCACACACAAAAAAATCAGACTA [CACACA_site7072],9.62
21,AGTTCAGAATTGAATAGTACATAAATATAACAAAAT [XGTACX_site650],9.51
22,TATGAACATATATATTGTACAAAATTATAATTTCAA [XGTACX_site6406],9.13
